Here are results for 15 compounds from PubChem BioAssay AID2202238 (Ras Initiative Chemistry Research Team, Frederick National …, 2025).

This experiment has as its target GTPase KRas (Homo sapiens) (UniProt P01116). The experiment can be described thus: Covalent labelling of cysteine mutants by fragments, read by mass spectrometry (AID 2202238). Also noted: protein at 5 µM with 500 µM competing thiol for 1.5 h. The note with it: KRAS G12D cysteine mutants, disulfide tethering, MALDI-TOF labeling, stronger effect = higher value, fragment at 500 µM.

Where [1] appears, read: measured here: G75C mutant labeling.
[2] abbreviates: measured here: H94C mutant labeling.
[3] abbreviates: measured here: I36C mutant labeling.
Setting [4] is: measured here: L120C mutant labeling.
[5] abbreviates: measured here: M67C mutant labeling.
[6] abbreviates: measured here: M72C mutant labeling.
Where [7] appears, read: measured here: N86C mutant labeling.
The mark [8] stands for this setting: measured here: P121C mutant labeling.
[9] abbreviates: measured here: S122C mutant labeling.
Setting [10] is: measured here: S136C mutant labeling.
Where [11] appears, read: measured here: G60C mutant labeling.
The mark [12] stands for this setting: measured here: N26C mutant labeling.

The list shows a part of the results. These are further read-outs of the screen, such as a control signal, another cell line or another target. No call is given for them.

UniProt P01116, sequence (P01116 whole entry, looked up, the tested form may be a part): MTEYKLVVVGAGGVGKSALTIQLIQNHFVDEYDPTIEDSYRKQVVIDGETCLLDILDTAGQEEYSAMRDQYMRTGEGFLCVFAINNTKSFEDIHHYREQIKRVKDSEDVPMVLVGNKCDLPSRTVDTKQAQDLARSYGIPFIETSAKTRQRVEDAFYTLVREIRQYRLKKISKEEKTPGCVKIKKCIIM

In the case of `O=C(CCS)Nc1ccc(Oc2ccccc2)c(F)c1`, the percent labeling by setting is: under setting [1], 17.4%; under setting [2], 14.7%; under setting [3], 19.4%; under setting [4], 18.8%; under setting [5], 29.8%; under setting [6], 55.1%. Besides, the percent labeling turned out to be 20.8% under setting [7], 18.1% under setting [8], 12.4% under setting [9] and 28.6% under setting [10].
On to `CC(C)n1nccc1C1NC(=O)CCC1NC(=O)CCS` (centres undefined), for which the percent labeling is, setting by setting: under setting [1], 7.4%; under setting [2], 35.7%; under setting [3], 40.3%; under setting [4], 26.9%; under setting [5], 38.1%; under setting [6], 14.3%. This compound showed a percent labeling under setting [7] of 25.3%, a percent labeling under setting [8] of 36.4%, a percent labeling under setting [9] of 27.9% and a percent labeling under setting [10] of 55.4%.
With `O=C(CCS)N1CCC(n2ccc(=O)[nH]c2=O)CC1`, the percent labeling came to 8.6% under setting [1]; 29% under setting [2]; 38.7% under setting [3]; 31.7% under setting [4]; 38% under setting [5]; 20.5% under setting [6]. Besides, the percent labeling by setting is: under setting [7], 19.3%; under setting [8], 32.9%; under setting [9], 35.2%; under setting [10], 50.3%.
As to `O=C(NCCS)c1cc2ccc(Br)cc2c(=O)[nH]1`, the percent labeling is, setting by setting: under setting [11], 9.7%; under setting [1], 4.1%; under setting [2], 9.8%; under setting [3], 9%; under setting [4], 4.6%; under setting [5], 7.4%. Further, the percent labeling was determined as 7.9% under setting [6]; 16% under setting [12]; 7.1% under setting [7]; 8% under setting [8]; 3.4% under setting [9]; 6.4% under setting [10].
Compound `CC1(N2CCCC2)CCN(C(=O)CCS)CC1` returned a percent labeling under setting [1] of 11.4%; a percent labeling under setting [2] of 28.5%; a percent labeling under setting [3] of 43.8%; a percent labeling under setting [4] of 19.6%; a percent labeling under setting [5] of 39.4%; a percent labeling under setting [6] of 16.4%. The percent labeling worked out at 24.4% under setting [7], 31.6% under setting [8], 21.9% under setting [9] and 49.9% under setting [10].
As for `O=C(NCCS)c1ccc2nc(-c3ccc(F)cc3)[nH]c2c1`, the percent labeling reads like this: under setting [11], 19%; under setting [1], 9.2%; under setting [2], 14.7%; under setting [3], 11.4%; under setting [4], 9.3%; under setting [5], 9.9%. In addition, the percent labeling turned out to be 20.4% under setting [6]; 37.6% under setting [12]; 14.8% under setting [7]; 10.5% under setting [8]; 7.1% under setting [9]; 13% under setting [10].
With `Cc1noc(-c2ccccc2C(=O)NCCS)n1`, the percent labeling is 36.3% under setting [11]; 14.2% under setting [1]; 32.7% under setting [2]; 20.5% under setting [3]; 32.7% under setting [4]; 28.5% under setting [5]. For the same compound, the percent labeling worked out at 20% under setting [6]; 35.6% under setting [12]; 30.4% under setting [7]; 33.5% under setting [8]; 29.9% under setting [9]; 41.2% under setting [10].
Consider `O=C(NCCS)c1ccc2[nH]c(=O)n(CC(F)(F)F)c2c1`, for which the percent labeling runs as follows: under setting [11], 49.5%; under setting [1], 31.5%; under setting [2], 40.5%; under setting [3], 26.6%; under setting [4], 54.1%; under setting [5], 38.6%. Besides, the percent labeling was 65.2% under setting [6]; 49.8% under setting [12]; 23.7% under setting [7]; 31.2% under setting [8]; 24.3% under setting [9]; 49.4% under setting [10].
Consider `O=C(CCS)NC1(c2ncccc2F)CCC1`, for which the percent labeling reads like this: under setting [1], 13.7%; under setting [2], 31.9%; under setting [3], 37.2%; under setting [4], 43.5%; under setting [5], 32.6%; under setting [6], 32.1%. The percent labeling by setting is: under setting [7], 37.3%; under setting [8], 40.1%; under setting [9], 43.5%; under setting [10], 62.9%.
With `Cc1sc2ncn(CCC(=O)NCCS)c(=O)c2c1C`, the percent labeling came out at 40.7% under setting [11]; 24.7% under setting [1]; 29.6% under setting [2]; 26.4% under setting [3]; 21.8% under setting [4]; 36.9% under setting [5]. For the same compound, the percent labeling reads like this: under setting [6], 30.1%; under setting [12], 32.7%; under setting [7], 17.3%; under setting [8], 24.5%; under setting [9], 19.1%; under setting [10], 32.1%.
On to `COC(=O)c1cc(C2CN(C(=O)CCS)C2)[nH]n1`, for which the percent labeling was 13.7% under setting [1]; 28.5% under setting [2]; 39.1% under setting [3]; 25.1% under setting [4]; 39.7% under setting [5]; 24.9% under setting [6]. In addition, the percent labeling reads like this: under setting [7], 26.8%; under setting [8], 25.9%; under setting [9], 30.9%; under setting [10], 44.9%.
Regarding `Cc1cccc(NC(=O)CCNC(=O)CCS)n1`, the percent labeling amounted to 0% under setting [1]; 11.6% under setting [2]; 7.3% under setting [3]; 9.1% under setting [4]; 16.3% under setting [5]; 4.2% under setting [6]. Further, the percent labeling under setting [7] is 6.5%, the percent labeling under setting [8] worked out at 14.6%, the percent labeling under setting [9] is 13.8% and the percent labeling under setting [10] worked out at 18.2%.
Take `CC(O)(CN1C(=O)C(C)(C)c2ccccc21)C(=O)NCCS` (centres undefined): the percent labeling is, setting by setting: under setting [11], 42.4%; under setting [1], 19.2%; under setting [2], 38.7%; under setting [3], 27.1%; under setting [4], 34.8%; under setting [5], 39.3%. Besides, the percent labeling is, setting by setting: under setting [6], 37.2%; under setting [12], 40.2%; under setting [7], 30.5%; under setting [8], 32.9%; under setting [9], 32.8%; under setting [10], 57.3%.
With `CC1CC1c1ccc(CNC(=O)CCS)o1` (centres undefined), the percent labeling runs as follows: under setting [1], 19.4%; under setting [2], 33.6%; under setting [3], 28.3%; under setting [4], 22.1%; under setting [5], 23.2%; under setting [6], 34%. Moreover, the percent labeling runs as follows: under setting [7], 22.9%; under setting [8], 26.8%; under setting [9], 31%; under setting [10], 45.8%.
On to `O=C(Cc1cc2ccccc2c(=O)o1)NCCS`, for which the percent labeling reads like this: under setting [11], 30.2%; under setting [1], 10.6%; under setting [2], 22.2%; under setting [3], 27.2%; under setting [4], 43.2%; under setting [5], 42.3%. Further, the percent labeling under setting [6] came to 49.7%; the percent labeling under setting [12] was 39.8%; the percent labeling under setting [7] amounted to 30.7%; the percent labeling under setting [8] amounted to 27.8%; the percent labeling under setting [9] was determined as 27.9%; the percent labeling under setting [10] was found to be 44.8%.
